# Laboratory results reported in the supplement of paper PMC11417369.
# The other results are listed elsewhere or left out.
# Test system: PfSIP2 AP2 domain 1 (GST-tagged)
# Assay: gcPBM binding intensity (ln(normalized median fluorescence intensity)); higher = stronger DNA binding
# In short: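 An Agilent 4 × 180k array of primer-extended double-stranded 36-bp intergenic genomic probes, with negative controls, was incubated for 1 h with GST-tagged P. falciparum DNA-binding domains expressed in E. coli. Alexa488 anti-GST antibody detected bound protein, scanned at 488 nm. Binding intensity is the highest Masliner-normalised natural-log median intensity across replicate spots of either probe orientation.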
row,Sequence,gcPBM binding intensity (ln)
1,TATAATTCATATGAAACACACATTTATTTTAATTAC [CACACA_site3686],6.93
2,GTTATTTATAGACACACACACATGCATGCACATATA [CACACA_site6204],9.23
3,CATATGTTCATCATAGCACACATATATAAATTACAA [CACACA_site9177],7.03
4,CACACCCACAGACACACACACACATATATATATATA [CACACA_site363],9.36
5,ATATATATATATATTTGTACATATATACATAAAATT [XGTACX_site359],9.23
6,GAAAAAGTTATAAATTGTACTAAATATTAAATATTG [XGTACX_site7890],6.77
7,TTTAAAATGGGACTTTGAAAAAAAAAAAAAAAAACA [TGCATGCA_negctrl_site111],6.8
8,CATATATATTTGTTCACACACACACCCAAAAAAAAA [CACACA_site2476],7.32
9,TATATATATATATATTGTACATAATGTATATATGTT [XGTACX_site3448],9.25
10,TATAGGTATGTATGTACACACAAAAAATGGAATATA [CACACA_site7704],7.2
11,AAAAAAAAAAAAAGGTGTACATGCAAAATAAATTCT [XGTACX_site4592],7.37
12,AAATAAATAAGAAACGCATGCATATATAATATATAA [TGCATGCA_site326],6.99
13,TCCTCGCGTAATACTTTTCAAATAAAAAAAATAAAA [TGCATGCA_negctrl_site403],7.29
14,ATTAAAAATTAATATAAACACACAAAAATTAATAAA [CACACA_site8019],6.88
15,TTTTTTTTTTTTTATTGTACTAGTAGATATATATAC [XGTACX_site3463],7.38
16,GTGTCAAATTTTATAACACACAAAAGATTATATAAG [CACACA_site4086],7.07
17,CCAATATATACATATATATAGTTATATATATTTCCT [TGCATGCA_negctrl_site38],6.98
18,AAACATACTTGATGCAGTACACATTATAAGCACATA [XGTACX_site3359],7.42
19,GGACTTAAATAAAATGGTACAGAATTTATATATATT [XGTACX_site8214],6.83
20,TAATGGAATACATATAGTACATAATATTACATACAT [XGTACX_site5737],6.94
21,TTTTAAAAATTAAAAAAATTAAATGTAAAAAAATGA [CACACA_negctrl_site861],7.12
22,ATATATGTATATGTGTGTACATATATGTTTATTATT [XGTACX_site6043],7.11
23,TTTTTTTTTTTTTTTACACACAAATGTATACTATAT [CACACA_site1787],7.03

row,Sequence,gcPBM binding intensity (ln)
1,TATTAAATATTCATATGTACATATAGTTTATAAATT [XGTACX_site7455],7.03
2,AAAACGGATTCTTTATAAATAAATAAATAAATATAA [XGTACX_negctrl_site157],6.98
3,ATATATGTATGTTAGACACACATATTATAATATGTT [CACACA_site116],6.98
4,AATACATACACAAATACACACACAAATACATACACA [CACACA_site8134],7.18
5,TTTATCAAAAAAAAAAAAAAAAAAAAAAAAAATTGT [CACACA_negctrl_site176],6.83
6,TATATGTTTTATAAATGTACATATACTTAAATATTT [XGTACX_site4753],7
7,TTATGTGCTTTAAAAGTGCATTTTTTTTTTTTTTTT,8.51
8,TTTTTTGTTATGCGGGTGCATATAATAATGTGATGA,10.8
9,TTATTTGTATCCATTTCACACATTTTATATAGTATC [CACACA_site5989],7.15
10,AATACATAATAACGTTGTACAAAAATTATAATACAT [XGTACX_site6508],7.24
11,ACTATTAAGAATAAAGAAATATGTAATTGTATTTAA [CACACA_negctrl_site516],6.79
12,TATAAATAAATGTGTACACACATTAAAATCAAACGT [CACACA_site2340],7.13
13,ATATATTTAATATTCACACATAATTATTTTTACTCT [CACACA_site5438],7.05
14,ATATAATGATAATATTGTACATGTTATATTTCAATA [XGTACX_site8645],6.94
15,TATAGATAAGAATATGCACACATTTTATTTTTTTTT [CACACA_site1982],7.16
16,TTGTAATATCTTGTCACACATATATATATATATATA [CACACA_site4937],9.38
17,TTTTTAATTTATTAAGAAGTAAAGAATAACTCTTTT [TGCATGCA_negctrl_site101],6.48
18,AAACATTAAAATAACTCACACATTTTTCTAGTCTTC [CACACA_site4612],6.77
19,GTATTATCTTTTAATAGTACATATTTTTTTGAAACA [XGTACX_site4050],6.97
20,AATATATTTTTATATTGTACAAAAGAAAAAAAATAT [XGTACX_site1689],7.15
21,CATATAATATTTGAAACTATATATAAATATAAGGTA [TGCATGCA_negctrl_site19],6.78
22,AGTTTTCCATGTTAATGTACTTAACAATACCATAAT [XGTACX_site209],7.18
23,ATTTATTCATAGACAACAAGAAAAAAAAAAAAAATT [CACACA_negctrl_site1168],6.77

row,Sequence,gcPBM binding intensity (ln)
1,TATATCCATATTGTATGTACACATATAATACCAATG [XGTACX_site7230],6.97
2,CATACATACAGACACACACACATATATATATATATA [CACACA_site2920],9.55
3,AACATAAAAATGAACATACACACATATATATATATA [CACACA_site2497],9.39
4,ATAAAAATACAGTTAACACACATGTGGATATATATG [CACACA_site3771],7.19
5,AAACAAAAAAGTAAGAAAAGGGATGATTGGATCCAA [CACACA_negctrl_site1230],6.54
6,AGATATTATAATTAATGTACAAAAAGAAAAAATAGA [XGTACX_site8964],7.04
7,TATTATTCTGTATTTGCATGTGATCATATATATGTA [TGCATGCA_site1053],7
8,CATATGTATATGACTACACACAAGGGTGTACAGATA [CACACA_site4776],6.93
9,TATATAACATAATATACACACATTATGTGCGTAATT [CACACA_site4073],6.89
10,GTATATCATTTTGGGGTGCTTAAAAATAATGAATAC,9.07
11,TTTTTTTTTTTTTATTGTACAAAGGTATAAAATAAT [XGTACX_site2396],7.18
12,GCGAGATGCTAAAATGCATGTTGGGCATTAGTTAAA [TGCATGCA_site586],6.63
13,TATAATAATTCTTTGAGTACTTAAACATGTGAAATT [XGTACX_site955],7.08
14,TATCATTTCTAAAAAGGTACACATACATCATATATT [XGTACX_site3386],6.93
15,ATATTAATATATGTGGCACACATGTGGAGTCCTATT [CACACA_site213],6.99
16,GTGTAGTAAAATCGATGTACGTACAAATCAATTATT [XGTACX_site7662],7.03
17,AAAAAAATGAAGAAATGTACAAATTTCATTAATTTT [XGTACX_site354],6.8
18,TATATATGTAAATGCACACATATGTGGATATACTTA [CACACA_site1699],7.14
19,CATTTTTACCGGTACTGTACATAAAAAAAAAAAAAG [XGTACX_site1548],7.43
20,TTATATGTTTTACAACGTACACAAAAAAAACTTATA [XGTACX_site4413],7
21,GCAGGCTAAAAAATTACACACGAAAAAAATGAATTT [CACACA_site3417],6.83
22,CATATATGGTTATATACATGCACCATTATATTATTA [TGCATGCA_site520],10.3
23,TATATAATATTTTTCACACACCATTTCCTTAAACAC [CACACA_site4862],7.32

row,Sequence,gcPBM binding intensity (ln)
1,TAAAAAAAAAGAAGGGGTACATGGATAATATATAAA [XGTACX_site8386],6.97
2,TGTATAACCTGTGTTACACACATTATGATTTATATA [CACACA_site525],6.86
3,TTGATAATTATATAATGTACTCATTATAATATGATG [XGTACX_site7813],6.95
4,TATAAAAAAAAAAAAAGTACTAACTTAAAACAATTT [XGTACX_site7969],6.95
5,TAATTAATAATAATATGTACATATTAATATATTATT [XGTACX_site6900],7.1
6,TTTTATATATATATCACACACACACCCATGTTTTAA [CACACA_site79],7.01
7,TTTATTCTCAAACACACACACATATATATATATATA [CACACA_site2895],8.87
8,TGATAAAGTAAATATACATGCGATTAGTTATATATA [TGCATGCA_site720],6.97
9,TATTTATTCTCCAACACACACACATATATTTATATA [CACACA_site7376],7.01
10,AGTTTGTCAATCAACACACACCTATTTATTATAGAT [CACACA_site7777],6.78
11,TTTTTTTTACATTCTGCACACAATTTATTTTTTTTT [CACACA_site36],7.12
12,AAAAATGAGTGACACACACACATATAAATATAAATA [CACACA_site7115],6.75
13,AAATCAAACTTTGGTGTGCACAAATATATACATATA [GTGCAC_site9986],9.51
14,GTAATTTTAAAGAAAAGTACACATTTATTAATTATT [XGTACX_site4468],6.72
15,ACATATAAATATTGTGTGCACACACATAATATATAT,8.29
16,GTGTTAAATGTTTACACACAAACTTGCAATAATTAT [CACACA_site3825],7.12
17,TTGCATTTATTATACACACACAAAAAAATATATATA [CACACA_site238],7.62
18,AAAAATTATAACTAAAAAAATCACACAAAATATTTT [TGCATGCA_negctrl_site28],6.77
19,TATGTATTTAAGTTACCTGAACGTTCAGGTAAAATT [CACACA_negctrl_site1393],6.96
20,AAAATCTATAATATAACACACATATATTCTATATGG [CACACA_site7821],6.68
